The campaign covered roughly 360,000 compounds. About 17,000 (4.7%) were called active. This list was built around the results that the source calls inconclusive (neither active nor inactive); the mix of calls is not that of the screen. Rule as the data show it: active = activity change below about -50%; inconclusive = mostly about -30% to -49%; inactive = weaker than that.
test: qHTS for Inhibitors of Inflammasome Signaling: IL-1-beta AlphaLISA Primary Screen; details: THP-1 LPS/ATP IL-1B secretion, 16 h; at 57.5 µM, stronger effect = lower value
Source text: Inflammasomes are a set of intracellular multi-protein complexes that enable autocatalytic activation of inflammatory caspases and drive the innate immune response to counter harmful agents. […] A qHTS assay, based on AlphaLISA technology, was developed to screen the Molecular Libraries Small Molecule Repository (MLSMR) to look for novel inflammasome inhibitors. The assay detects IL-1B using AlphaLISA anti-IL-1B acceptor and donor beads. A decreased emission signal, indicating reduced IL-1B secretion, is the desired outcome for this assay. NIH Chemical Genomics Center [NCGC] NIH Molecular Libraries Probe Centers Network [MLPCN] MLPCN Grant: MH095513 Assay Provider: Shyam Biswal Ph.D., Johns Hopkins University Immunity. 2012 Jul 27;37(1):85-95. PMID: 22819042 [2] Curr Pharm Des. 2012;18(16):2320-8. PMID: 22390695
Three microliters containing 3000 THP-1 cells were dispensed into the wells of solid, white, tissue culture treated Greiner 1,536-well plates. Library compounds and positive control, Glyburide, were pin-transferred (23 nL) by a Kalypsys pin-tool equipped with a 1,536-pin array, resulting in final compound concentration ranges of 2.5 nM to 57.5 uM. After 1 hr of cell culture incubation (37 °C, 5% CO2), 1 microL of 1 microg/mL lipopolysaccharide (250 ng/mL, final) and 5 mM ATP (1.25 mM, final) were added to stimulate the cells. After 16 hr of cell culture incubation with the compounds, 1.5 uL of anti-IL-1B acceptor beads (6 ug/mL, final) and biotinylated antibody (0.6 nM, final) were added to the plate, followed by a 1 hr incubation at ambient temperature. To detect the secreted IL-1B, 1.5 uL of AlphaLISA SA-Donor beads (24 ug/mL, final) were added, followed by 30 min of incubation in the dark at ambient temperature. The AlphaLISA signal was read by a PerkinElmer EnVision plate reader with an ultrasensitive luminescence detector and 1536 Plate HTS AlphaScreen aperture (excitation of 680nm and emission of 615nm).
% is scaled to controls: 0 for no effect and ±100 for the full control effect.

Activity change, active:
Cc1c(C(=O)NCCC2=CCCCC2)oc2ccc(S(=O)(=O)N3CCC4(CC3)OCCO4)cc12 -66.2%
Cc1nn(-c2ccccc2)c(C)c1/C=N/Nc1nc2ccccc2[nH]1 -88.2%
Cc1cccc(NC(=O)Nc2ccc(C#N)cc2)n1 -84.6%
O=C(Cc1ccccc1)N1CCCC(c2nc(-c3ccc(S(=O)(=O)N4CCCC4)cc3)no2)C1 (stereo not drawn) -71.5%
CC(C)C(c1nnnn1C1CCCCC1)N1CCc2ccccc2C1 (stereo not drawn) -78.5%
CCc1ccc2oc(-c3ccc(OC)cc3)cc(=Nc3c(C)n(C)n(-c4ccccc4)c3=O)c2c1 -64.6%
c1ccc(-c2cc(-c3nnc4n3N=C(c3ccc5ccccc5c3)CS4)[nH]n2)cc1 -64.5%

Activity change, inconclusive:
COc1ccccc1CNC1CCN(Cc2ccccc2)CC1 -35.4%
COc1ccc(C(=O)c2[nH]c(N)c(C(=O)NCCc3c[nH]c4ccccc34)c2-c2ccc(OC)c(OC)c2)cc1 -49.3%
NC1=NC[C@@H](Cc2ccc(O)cc2)N1CCCCC1CCCCC1 -49.8%
CCCCn1cnc2c(SCc3ccccc3F)nc(N)nc21 -46.8%
Cc1ccc(Nc2nnc(-c3ccc4c(c3)OCO4)o2)c(C)c1 -35%
O=C(Nc1ccc(S(=O)(=O)N2CCOCC2)cc1)c1cc(-c2cc(Cl)ccc2O)n[nH]1 -43.6%
COCCn1c(SCC(=O)Nc2ccc(NC(=O)c3ccco3)c(OC)c2)nc2ccccc2c1=O -46.6%
O=C(N/N=C/c1c[nH]c2ccc(Br)cc12)c1ccn(Cc2ccc(Cl)cc2)n1 -40%
CC(=O)OCC(=O)[C@@]12OC(C)(C)O[C@@H]1C[C@H]1[C@@H]3C[C@H](F)C4=CC(=O)C=C[C@]4(C)[C@@]3(F)[C@@H](O)C[C@@]12C -38.4%
O=C(NCc1ccccc1Cl)c1cc2c(s1)CS(=O)(=O)C2 -36.4%
O=C(Nc1ccc2nc3n(c(=O)c2c1)CCCC3)c1ccc(Cl)nc1 -32%
CNc1cc(-c2cccc(OC)c2F)nc2ccnn12 -36.2%
CN(C)C(=O)/C=C\c1cn(-c2ccccc2)nc1-c1ccc2c(c1)OCCO2 -40.3%
Cc1cccc(N2CCN(C(=O)c3ccccc3OCc3c(C)noc3C)CC2)c1C -41.6%
COc1ccc(-c2nnn(CC(=O)N(CCCO)C(C(=O)NC3CCCC3)c3ccc(F)cc3)n2)cc1 (stereo not drawn) -32.9%
O=C(COC(=O)c1cnc(Cl)c(Cl)c1)NC1CCCC1 -32.5%
COc1cc(O)c(C(CCN2CCCCC2)c2ccc(N(C)C)cc2)c(OC)c1 (stereo not drawn) -46.1%
CCC1(c2ccccc2)C(=O)N(C(=O)OC(C)(C)C)N1C(=O)OC(C)(C)C (stereo not drawn) -48.4%
COc1ccc(NC(=O)c2cc(-c3cc(Cl)ccc3OC)n[nH]2)c(OC)c1 -35.3%
CC(C)Oc1ccc(CN2CCC2(C)C(=O)NCc2ccc(C(F)(F)F)cc2)cc1 (stereo not drawn) -35.3%
CN(C1CCCCC1)S(=O)(=O)c1ccc(S(=O)(=O)N2CCN(C(=O)c3ccccc3F)CC2)cc1 -32.2%
CCc1ccc(-c2cc(C(F)(F)F)n3nc(C(=O)Nc4c(C)nn(Cc5ccc(F)cc5)c4C)cc3n2)s1 -30.3%
COc1cccc(NC(=O)CN(C)C(=O)/C=C/c2cn(Cc3ccccc3)nc2-c2cccnc2)c1 -45.6%
CCN(CCNC(=O)c1ccc(C#N)cc1)c1cccc(C)c1 -48%
N=c1nc(N)nc2n1NC(c1ccc(F)cc1)=CS2 -32.8%
Cc1ccc(C(=O)Cn2c(C(=O)/C=C/c3ccccc3)nc3ccccc32)cc1 -44.2%
COCc1[nH]nc2c1C(c1ccccc1Cl)C(C#N)=C(N)O2 (stereo not drawn) -30.5%
O=C(Nc1ccc(Oc2cccnc2)cc1)c1ccccc1Cl -38.1%
C=CCn1c(=O)/c(=C/c2ccc(O)cc2)s/c1=C(/C#N)c1nnc2n1CCCCC2 -39.5%
Cc1ccccc1Nc1ccc(S(=O)(=O)N2CCOCC2)cc1[N+](=O)[O-] -32.5%
O=C(Cn1ncc2c1-c1ccccc1OC2)Nc1ccc(S(=O)(=O)N2CCCCC2)cc1 -33.1%
Clc1ccccc1CSc1nncn1NC/C=C/c1ccccc1 -34.1%
COc1ccccc1-c1sc2cc3c(cc2c1-c1ccc(OCCN2CCCCC2)cc1)OCO3 -45.1%
CCC(C)CCN1C(Nc2ccccc2)=NC[C@@H]1Cc1ccccc1 (stereo partly drawn) -43.5%
Cc1cc(C=O)c(C)n1-c1ccc(N2CCCCC2)c([N+](=O)[O-])c1 -46.3%
Nc1cccc(CCc2nc3cc4ccccc4cc3[nH]2)c1 -33%
CCOc1ccc(CN(C)CC(=O)Nc2cccc(S(=O)(=O)N(C)c3ccccc3)c2)cc1 -37.6%
O=C(CCCn1c(=O)[nH]c2cc(Cl)ccc2c1=O)NCCCN1CCN(c2ccc(F)cc2)CC1 -32.8%
O=C(Nc1ccc2c(c1)OCCO2)c1ccc(Cl)c(S(=O)(=O)N2CCCCC2)c1 -38.1%
CC1(C(=O)Nc2cccc3cccnc23)CCN1C(=O)CCC1CCCC1 (stereo not drawn) -38.6%
Cc1noc(C)c1-c1ccc(C(=O)NCc2ccccc2)c2occc12 -41.3%
COc1ccc(/C=N/NC(=O)c2cc(-c3ccccc3OC(C)C)nc3ccccc23)cc1CN1CCOCC1 -38.4%
Cc1cc(C)cc(NC(=O)C2CCN(c3cnccn3)CC2)c1 -45.9%
CN(Cc1nccn1C)C(=O)CC1C(=O)NCCN1CC(c1ccccc1)c1ccccc1 (stereo not drawn) -34.3%
COc1ccc(-c2nn(-c3ccccc3)cc2/C=C2/SC(=S)N(CCC(=O)O)C2=O)cc1 -45.8%
COc1ccc(NS(=O)(=O)c2ccc(NC(=O)c3ccc(CN4CCOCC4)cc3)cc2)cc1 -45.5%
O=C(CSc1nnc(COc2ccccc2)n1-c1ccccc1)c1cccs1 -38.2%

Activity change, inactive:
O=C(Nc1cccnc1)c1cc(-c2ccco2)on1 -11.6%
COc1cccc(/C=N/NC(=O)c2[nH]c(C)c(C(=O)N/N=C/c3cccc(OC)c3O)c2C)c1O 49.8%
CN(C)c1ccc(C=NC(CO)C(O)c2ccc([N+](=O)[O-])cc2)cc1 (stereo not drawn) -1.63%
COC(=O)c1c(NC(=O)C(Cl)Cl)sc2c1C(C(=O)OC)CC2 (stereo not drawn) 0%
O=S(=O)(Nc1nc2ccccc2nc1NCc1ccco1)c1ccc(Cl)cc1 26.1%
CC(C)CN1C(=O)c2ccc(C(=O)Nc3ccncc3)cc2C1=O -13.2%
CS(=O)(=O)N(CC(=O)N1CCCC1)c1ccc(Cl)c(Cl)c1 -1.15%
O=S(=O)(c1ccc(NC(=S)N2CCCCC2)cc1)N1CCCCC1 29.9%
N#CCCCSC1=C(C#N)C(c2ccccc2Cl)CC(=O)N1 (stereo not drawn) -9.27%
Cc1sc2nc(CSCC(=O)Nc3ccc(C(=O)N(C)C)cc3)[nH]c(=O)c2c1C -3.15%
NC(=O)CSc1nnc(-c2cnccn2)n1Cc1ccco1 -12.9%
O=C(CN(Cc1ccccc1)S(=O)(=O)c1ccc(F)cc1)NCc1cccnc1 15.5%
CCOc1ccc(C(=O)N2CCN(c3ccccc3)CC2)cc1 8.17%
CN1C(=O)c2cccc(N(C)C)c2C1=O -16.2%
CCCCCCSc1cc(-c2nc3ccc(Cl)cn3c2NC2CCCCC2)ccc1OC -16.7%
CCOc1ccc(S(=O)(=O)Oc2ccc3ccccc3c2)cc1 -13.1%
CCCCC1CC(/C(C)=N/NC(N)=O)OC1=O (stereo not drawn) -13.6%
COc1cc2c(cc1OC)C(C)N(CC(=O)Nc1ccc(C)c(S(=O)(=O)N3CCOCC3)c1)CC2 (stereo not drawn) -3.25%
O=C(NCCc1ccco1)C(=O)NCC1OCCCN1S(=O)(=O)c1ccccc1 (stereo not drawn) -1.25%
Cc1ccccc1NC(=O)CC(=O)c1ccccc1 -12.9%
COCCNC(=O)c1cc(S(=O)(=O)N2CCCCC2)ccc1N1CCOCC1 -7.81%
O=C(COC(=O)/C=C/c1cccs1)NC(c1ccccc1)c1ccccc1 10.5%
Cc1ccc(N2C(=O)CC(Sc3ncccc3C(=O)O)C2=O)cc1 (stereo not drawn) 3.21%
COc1ccc(F)cc1CN1CCN(C(=O)CCC(=O)Nc2nnc(CC(C)C)s2)CC1 21.5%
Cc1cccc(N/C=C/c2onc(C)c2[N+](=O)[O-])c1 2.89%
Cc1noc(C)c1C(=O)N1CCC1(C)C(=O)NS(=O)(=O)c1ccccc1C(F)(F)F (stereo not drawn) 4.3%
COc1ccccc1C(=O)NCCC(=O)N1CC(C)OC(C)C1 (stereo not drawn) 5.49%
O=C(N/N=C/c1ccccc1)c1[nH]c2ccc(Br)cc2c1-c1ccccc1 24.8%
C[C@@H]1CN([C@H](C)CO)S(=O)(=O)c2ccc(Br)cc2O[C@@H]1CN(C)Cc1ccc(C(=O)O)cc1 7.14%
